Laboratory results published in PubChem BioAssay AID488969 (Vanderbilt High Throughput Screening Facility, 2010).
In all, about 110,000 compounds were measured (“z-score”: median about -0.1, highest 2% from about 2 on). The list shows a part of the results.

What follows are molecules tested against Metabotropic glutamate receptor 8 (Rattus norvegicus) (UniProt P70579) (assay: mGluR8 Gi/Go-coupled signaling modulation – cell-based, rat, thallium flux, HTS, primary screen (AID 488969)). Details: HEK293 rat mGluR8, GIRK (G protein-gated inwardly rectifying potassium channel) thallium flux, FluoZin2; at 10 µM; stronger effect = higher value; submaximal glutamate (EC20) added with thallium.
UniProt P70579, sequence (P70579 whole entry, looked up): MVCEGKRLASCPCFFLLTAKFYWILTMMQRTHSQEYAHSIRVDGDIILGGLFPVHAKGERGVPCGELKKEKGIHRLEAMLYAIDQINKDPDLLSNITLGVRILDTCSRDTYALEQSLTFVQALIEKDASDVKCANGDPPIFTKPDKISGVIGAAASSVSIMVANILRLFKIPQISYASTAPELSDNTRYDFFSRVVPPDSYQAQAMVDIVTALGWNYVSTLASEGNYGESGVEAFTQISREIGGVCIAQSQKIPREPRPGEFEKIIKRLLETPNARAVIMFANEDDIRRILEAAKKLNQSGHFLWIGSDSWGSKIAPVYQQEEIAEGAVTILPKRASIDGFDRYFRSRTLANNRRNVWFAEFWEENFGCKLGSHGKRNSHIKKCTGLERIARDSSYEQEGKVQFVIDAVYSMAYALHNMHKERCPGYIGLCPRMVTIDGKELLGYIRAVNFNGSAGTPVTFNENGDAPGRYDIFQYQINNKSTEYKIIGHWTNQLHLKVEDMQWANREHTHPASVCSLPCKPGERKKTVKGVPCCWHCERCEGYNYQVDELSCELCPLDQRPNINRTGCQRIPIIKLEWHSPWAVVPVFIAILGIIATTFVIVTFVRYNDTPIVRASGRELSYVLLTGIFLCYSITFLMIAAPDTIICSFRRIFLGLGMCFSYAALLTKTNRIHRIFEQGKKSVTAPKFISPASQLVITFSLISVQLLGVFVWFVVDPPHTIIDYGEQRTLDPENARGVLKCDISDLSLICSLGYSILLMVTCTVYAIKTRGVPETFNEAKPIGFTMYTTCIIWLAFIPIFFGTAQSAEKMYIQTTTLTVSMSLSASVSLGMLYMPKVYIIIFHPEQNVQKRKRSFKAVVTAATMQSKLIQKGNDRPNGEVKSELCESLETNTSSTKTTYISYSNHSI
In the case of `O=C(COc1ncnc2cc([N+](=O)[O-])ccc12)NCc1ccc2c(c1)OCO2`, the z-score is reported as -0.15. Work on `COc1ccc(/C=N/Nc2nc3ccccc3c(=O)n2-c2ccccc2)cc1OC` yielded a z-score of -0.0624. `C=CCNc1ccc(C(=O)O)cc1` showed a z-score of 0.0675. Molecule `Nc1nnnn1/N=C/c1ccccc1C(F)(F)F` has a z-score of -0.192. With `CCOC(=O)c1cnc2c(cnn2C)c1NCCCN(C)C` the z-score was 0.215. For `CCCc1c(C)c2cccc(C)c2[nH]c1=O`, the z-score was -0.141. For `COc1ccc(CC(NC(C)=O)C(=O)N2CCN(C(=O)Nc3cccc(Cl)c3)CC2)cc1OC` (stereo unspecified), the z-score was 0.122. For `CC1Cc2ccccc2N1C(=O)CSc1nc2cc3c(cc2cc1C#N)OCO3` (stereo unspecified), the z-score was 0.268. Molecule `Cc1ccc(-n2nc(C)c(C(=O)O)n2)c(C)c1` has a z-score of 0.0362. `Cc1ccc(/C=C/C(=O)OC(C)C(=O)Nc2ccc(Cl)cn2)o1` (stereo unspecified) gave a z-score of 0.397. With `COC(CNC(=S)Nc1ccc([N+](=O)[O-])cc1)OC` the z-score was 0.338. Molecule `O=C(Nc1ccccc1Cl)N1CCn2c(nc3ccccc32)C1` has a z-score of 0.0418. For `COCCOc1cnn(-c2cc(Oc3ccc(C)cc3)ncn2)c(=O)c1Cl`, the z-score was -0.318. `CCCC[n+]1ccn(-c2nc3ccccc3nc2[N-]S(=O)(=O)c2ccc(C)cc2)c1` gave a z-score of 0.155. For `CCn1cc(CNC(=O)CCSc2nc(-c3ccco3)cc(C(F)(F)F)n2)cn1`, the z-score was -0.23. `Cc1cccn2c(=O)c3cc(C(=O)NCCc4ccccc4)c(=N)n(CCCn4ccnc4)c3nc12` gave a z-score of -0.136. `Cc1ccccc1/C=N/NC(=O)Cn1nnc(N)n1` showed a z-score of 1.38. `O=C(c1ccc(NS(=O)(=O)c2ccccc2)cc1)N1CCCC1` was tested, and the z-score was -0.18. `Cc1nn(CC#N)c(=O)n1-c1cccc(F)c1` gave a z-score of -0.292. In the case of `CCCCn1c(Nc2ccccc2)nc2ccccc21`, the z-score is reported as 0.15. With `CCOC(=O)c1[nH]c(C)c(C(=O)OCc2c(C)noc2C)c1C` the z-score was 0.625. For `CCn1c(SCC(=O)NCC2CCCO2)nnc1-c1c[nH]c2ccccc12` (stereo unspecified), the z-score was 0.0169. In the case of `CCCC(c1nnnn1Cc1ccco1)N1CCN(c2cc(Cl)ccc2C)CC1` (stereo unspecified), the z-score is reported as 0.152. `COc1cc(OC)c(C2C(C(=O)O)c3ccccc3C(=O)N2C)cc1OC` (stereo unspecified) showed a z-score of -0.0582. `O=C(NC1CCCCCC1)C1c2ccccc2C(=O)N1CCCN1CCOCC1` (stereo unspecified) showed a z-score of -0.316. `COc1ccccc1N1CCN(C(=O)c2cc(C3CC3)on2)CC1` showed a z-score of 0.123. Molecule `CCCCOc1ccc(C2OC34CCCCC3C(C#N)(C#N)C2(C#N)C(=N)O4)cc1` (stereo unspecified) has a z-score of 0.317. `CC(C)CC(NC(=O)C(CC(C)C)NC(=O)OC(C)(C)C)C(=O)O` (stereo unspecified) gave a z-score of -0.332. `Cc1ccnc(N2C(=O)c3cccc4c([N+](=O)[O-])ccc(c34)C2=O)c1` gave a z-score of 1.07. Molecule `CCOC(=O)N1CCN(C(=O)COc2ccc(Cl)cc2)CC1` has a z-score of -0.44. For `O=C(O)c1ccc(S(=O)(=O)N2CCCCCC2)cc1`, the z-score was -0.192.
